Measured values published in PubChem BioAssay AID1814 (Broad Institute, 2009).
Among all 300,000 compounds or so, about 22,000 (7.3%) were called active. This list was built around the results that the source calls inconclusive (neither active nor inactive); the mix of calls is not that of the screen. No stated cut-off is given here; in the data, active means activity score below about -60%; inconclusive means mostly about -28% to -61%; inactive means positive scores.

Experiment: Activators via SNCA 5'UTR binding, MLPCN (AID 1814)
Conditions: alpha-synuclein 5'UTR reporter, activators screen; stronger effect = lower value; tested at 7.5 µM
In the case of `Cc1ccc(F)cc1NC(=O)c1cccc2nccnc12`, the activity score is reported as inconclusive: -54.5%.
With `COc1ccc(Nc2nc(N)nc(SCc3nnc(C)s3)n2)cc1` the activity score was inconclusive: -53.9%.
In the case of `c1ccc(-c2nnc(CSc3nnc(-c4cccs4)o3)o2)cc1`, the activity score is reported as inconclusive: -51.4%.
In the case of `NC(N)=N/N=C/c1ccc(OCc2ccccc2)c(OCc2ccccc2)c1`, the activity score is reported as inactive: 106%.
In the case of `O=C(/C=C/c1ccccc1)Nc1scc(-c2ccccc2)c1C(=O)O`, the activity score is reported as active: -84.2%.
In the case of `CCOC(=O)c1ccc(NC(=S)NN2CCOCC2)cc1`, the activity score is reported as inconclusive: -44.9%.
In the case of `CCN(CC)S(=O)(=O)c1ccc(C)c(C(=O)Oc2cccc(-c3cnc4ccccc4n3)c2)c1`, the activity score is reported as active: -178%.
In the case of `CO/N=C\C(=N\Nc1ccc(OC)cc1)C(=O)c1ccccc1`, the activity score is reported as inconclusive: -44.2%.
With `Cc1ccc(NC(=O)c2oc3ccccc3c2NC(=O)c2ccc3c(c2)OCO3)cc1` the activity score was inconclusive: -58.2%.
In the case of `COCCOC(=O)c1c(C)oc2ccc(OC(=O)c3ccco3)cc12`, the activity score is reported as inconclusive: -54.9%.
With `COc1ccc(-c2nc(=S)c3ccc4ccccc4c3[nH]2)cc1` the activity score was inconclusive: -58.8%.
In the case of `Cc1cc(C(=O)N/N=C/c2ccc3c(c2)OCO3)c(C)n1-c1ccc(F)cc1`, the activity score is reported as inconclusive: -61.5%.
In the case of `CCOc1ccc(-n2nnnc2SCC(=O)N2CCOCC2)cc1`, the activity score is reported as inconclusive: -52.5%.
For `CCCn1c(NCc2cccc(OC)c2O)nc2ccccc21`, the activity score was active: -82%.
With `CCn1c(C(=O)Nc2ccsc2C(=O)OC)cc2sc(Cl)cc21` the activity score was inconclusive: -46%.
In the case of `CCNC(=S)N=Nc1c(O)[nH]c2ccc(C(C)C)cc12`, the activity score is reported as inactive: 63.2%.
In the case of `Cc1nc2ccccc2c2oc(C(=O)NCCN3CCCCC3C)cc12` (centres undefined), the activity score is reported as inconclusive: -47.1%.
In the case of `CCn1c(Sc2nc(C)nc3scc(-c4cccs4)c23)n[nH]c1=O`, the activity score is reported as inconclusive: -53%.
For `COc1ccc(Nc2oc(-c3ccccc3Cl)nc2C#N)cc1`, the activity score was active: -108%.
In the case of `CCN(CC)CCCNC(=S)N1CCN(c2nc(-c3ccc(F)cc3)cs2)CC1`, the activity score is reported as inactive: 133%.
For `COc1cccc(/C=N/Nc2ncccc2[N+](=O)[O-])c1OC`, the activity score was inactive: 91.6%.
For `COc1ccc(OC)c(-c2cc(C(=O)Nc3c(C)nn(Cc4ccccc4)c3C)no2)c1`, the activity score was inactive: 61%.
With `COc1ccc(C2Nc3ccc(Br)cc3C(c3ccccc3)N2CC(=O)O)cc1` (centres undefined) the activity score was inconclusive: -42.1%.
For `Cc1[nH]n(-c2ccccc2)c(=O)c1N=Nc1ccccc1O`, the activity score was inactive: 50%.
For `COc1ccc(Br)cc1CNC(=O)C1CCN(C(=O)N(C)C)CC1`, the activity score was inactive: 77.6%.
For `O=[N+]([O-])c1ccccc1/C=N/OCc1ccccc1`, the activity score was active: -167%.
For `COC(=O)c1c(N)sc(C(=O)NCCc2ccccc2)c1C`, the activity score was inactive: 105%.
With `CCC(CC)C(=O)Nc1ccc(-c2cn3cccnc3n2)cc1` the activity score was inconclusive: -50.6%.
In the case of `O=C(/C=C/c1ccccc1)n1cnnc1SC/C=C/c1ccccc1`, the activity score is reported as inconclusive: -52.3%.
For `Cc1ccnc(NC(=O)c2ccc3c(c2)S(=O)(=O)c2ccccc2C3=O)c1`, the activity score was inconclusive: -57.9%.
With `O=C1SC(c2ccccc2)=C/C1=C\N1CCCCC1` the activity score was inconclusive: -48.8%.
For `CC(C)COC(=O)/C(C#N)=C/c1cn(Cc2ccccc2)c2ccccc12`, the activity score was inactive: 79.5%.
In the case of `O=c1oc(-c2ccco2)nc2sc3c(c12)CCCCC3`, the activity score is reported as inconclusive: -51.4%.
In the case of `COc1cccc(C(=O)Oc2ccc(/C=N/Nc3ccc(C(=O)O)cc3)cc2OC)c1`, the activity score is reported as inconclusive: -56.1%.
In the case of `CCC(=O)Nc1nc2ccccc2n1Cc1ccc(C)cc1`, the activity score is reported as inactive: 77.4%.
In the case of `O=C1CC(NCc2ccco2)C(=O)N1CCc1ccccc1` (centres undefined), the activity score is reported as inconclusive: -27.4%.
For `Cc1ccc(OCc2cc(C(=O)N3CCCC3)no2)cn1`, the activity score was active: -69.6%.
In the case of `Cc1cccc(N2CCN(Cc3nc(-c4ccc(F)cc4F)oc3C)CC2)n1`, the activity score is reported as inconclusive: -37.4%.
In the case of `O=C(NCC1OCCc2ccccc21)c1ccc(NC(=O)c2ccc(Cl)cc2)cc1` (centres undefined), the activity score is reported as inactive: 79.4%.
For `S=C(N/N=C/c1ccccc1Cl)Nc1ccccc1`, the activity score was active: -106%.
With `Cc1nc(-c2ccc(O)c(O)c2)cs1` the activity score was inconclusive: -49.5%.
With `CCOC(=O)c1cccc(NC(=O)C2(S(=O)(=O)c3ccc(Cl)cc3)CC2)c1` the activity score was inconclusive: -25.4%.
For `CCOC(=O)c1nn(-c2ccc(C)c(C)c2)c(=O)c2c(N)scc12`, the activity score was inactive: 45.6%.
With `COc1cc2ccccc2cc1C(=O)Nc1sc2c(c1C(N)=O)CCN(C(C)C)C2` the activity score was inactive: 102%.
With `CCOC(=O)/C(C#N)=C\c1cn(C)c2ccccc12` the activity score was inconclusive: -60.7%.
With `CC(=O)c1c(C)[nH]c(C(=O)OCC(=O)Nc2cc(S(=O)(=O)N3CCCC3)ccc2Cl)c1C` the activity score was inconclusive: -56.3%.
In the case of `Cc1cc(C(=O)COC(=O)c2ccc(O)cc2)c(C)n1-c1ccccc1F`, the activity score is reported as active: -78.2%.
For `Cc1cccc(/C=C2/Sc3ccc(C(=O)N4CCOCC4)cc3NC2=O)c1`, the activity score was inconclusive: -52.7%.
In the case of `CNC(=O)c1cc(C(=O)c2ccc(C(F)(F)F)cc2)c[nH]1`, the activity score is reported as inconclusive: -56.3%.
For `O=C(O)COc1ccccc1C(Nc1ccccn1)c1cc(Cl)c2cccnc2c1O` (centres undefined), the activity score was inconclusive: -36.8%.
With `CC1CCN(C(=O)CSCc2ccc(Cl)cc2)CC1` the activity score was active: -95.5%.
For `O=C(N/N=C\c1c(O)ccc2ccccc12)c1ccc(Cn2cccn2)o1`, the activity score was inactive: 91.7%.
In the case of `O=C(CCCOc1ccccc1)N1CCN(C(=O)c2ccco2)CC1`, the activity score is reported as inconclusive: -48%.
With `O=C(N/N=C/c1sc(=O)n(-c2ccccc2)c1Cl)c1ccncc1` the activity score was inconclusive: -54.7%.
With `COc1cccc(N=Nc2c(N)[nH][nH]c2=O)c1` the activity score was inconclusive: -56.7%.
With `Cc1ccc(-c2csc3nc4c5ccccc5c(NCCCN5CCOCC5)nn4c(=O)c23)cc1` the activity score was inconclusive: -59.2%.
In the case of `CC1CCN(C(=O)Nc2ccc3nsnc3c2)CC1`, the activity score is reported as active: -126%.
With `CC1CCCN(CCOCCOc2ccc(Cl)cc2Br)C1` (centres undefined) the activity score was inconclusive: -32.7%.
With `Fc1ccc(CO/N=C/C2=C(Cl)c3ccccc3CC2)cc1` the activity score was inconclusive: -60.1%.
